About 2,200 (0.71%) of roughly 310,000 compounds showed an effect of 50% or more. Effects have a minus sign here. The list shows a part of the results.
What follows are compounds tested against human ether-à-go-go-related gene (hERG) potassium channel (human, UniProt Q12809) (assay: primary screen, population patch clamp on CHO cells stably expressing hERG).
Chain of human ether-à-go-go-related gene (hERG) potassium channel (Q12809 whole entry, looked up): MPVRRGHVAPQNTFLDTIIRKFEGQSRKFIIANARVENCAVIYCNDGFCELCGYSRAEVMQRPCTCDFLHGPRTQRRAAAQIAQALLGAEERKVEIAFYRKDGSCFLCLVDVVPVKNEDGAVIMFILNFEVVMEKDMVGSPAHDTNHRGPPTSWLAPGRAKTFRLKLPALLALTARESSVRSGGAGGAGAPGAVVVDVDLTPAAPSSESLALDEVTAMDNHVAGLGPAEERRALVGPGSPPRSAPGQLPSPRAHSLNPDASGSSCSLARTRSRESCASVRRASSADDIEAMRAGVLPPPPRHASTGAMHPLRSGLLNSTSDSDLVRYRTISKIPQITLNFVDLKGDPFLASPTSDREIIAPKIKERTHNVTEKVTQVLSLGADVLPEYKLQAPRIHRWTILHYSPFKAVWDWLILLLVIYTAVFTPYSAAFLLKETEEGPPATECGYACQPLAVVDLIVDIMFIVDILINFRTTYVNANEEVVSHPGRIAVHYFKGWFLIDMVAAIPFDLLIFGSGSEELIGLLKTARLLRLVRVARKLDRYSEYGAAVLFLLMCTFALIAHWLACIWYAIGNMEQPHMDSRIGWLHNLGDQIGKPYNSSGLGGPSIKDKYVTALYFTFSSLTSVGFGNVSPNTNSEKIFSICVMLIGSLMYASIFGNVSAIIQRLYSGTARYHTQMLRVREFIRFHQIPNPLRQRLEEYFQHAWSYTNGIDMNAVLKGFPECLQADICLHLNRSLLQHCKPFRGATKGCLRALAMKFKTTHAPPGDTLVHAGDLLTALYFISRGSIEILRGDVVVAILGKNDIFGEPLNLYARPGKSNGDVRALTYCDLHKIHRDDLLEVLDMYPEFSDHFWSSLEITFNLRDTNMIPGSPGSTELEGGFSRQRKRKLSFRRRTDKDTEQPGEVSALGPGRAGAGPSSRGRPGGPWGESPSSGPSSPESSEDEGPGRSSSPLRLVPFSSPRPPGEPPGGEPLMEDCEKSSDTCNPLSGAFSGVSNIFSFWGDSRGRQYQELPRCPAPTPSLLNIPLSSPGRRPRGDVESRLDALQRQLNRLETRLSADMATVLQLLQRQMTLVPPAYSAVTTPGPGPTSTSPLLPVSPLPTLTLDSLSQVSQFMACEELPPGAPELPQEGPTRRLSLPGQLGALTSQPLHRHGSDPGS

SMILES | hERG current change (%, negative = inhibition) at 1uM
COc1ccc(C(=O)Nc2cccc(OC)c2)cc1 | 23.6%
COc1ccc(NC(=O)C2CCN(C(=O)c3ccc(OC)cc3)CC2)cc1 | -69.6%
Cc1nnc(SCC(=O)NC2CCS(=O)(=O)C2)n1-c1ccccc1 (stereo not drawn) | 9.38%
Cc1cccc(N2CCN(C(=O)c3ccncc3)CC2C)c1 (stereo not drawn) | 16.9%
Cc1cc(N2CCCC2=O)cc(C)c1CN1C(=O)c2ccccc2C1=O | 17%
Cc1ccnc(SCC(=O)N2CCN(c3cccc(Cl)c3)CC2)n1 | 1.16%
C=C/C(C)=C/C[C@H]1C(=C)CCC2[C@](C)(C(=O)O)CCC[C@@]21C (stereo partly drawn) | 9.73%
CC(C)c1ccc(NC(=O)C(c2ccc3c(c2)OCO3)N2CCC3(CC2)OCCO3)cc1 (stereo not drawn) | -0.174%
COc1ccc(NC(=O)CSc2nc3ccccc3cc2Cc2ccccc2)cc1 | 12.7%
CCCN1C2CCCC1CC(NC(=O)c1cc(OC)c(OC)c(OC)c1)C2 (stereo not drawn) | 11.8%
Cc1cc([N+](=O)[O-])nn1CCCC(=O)N1CCN(c2ccc(F)cc2)CC1 | -7.23%
O=C(CNC(=O)c1nc[nH]c1C(=O)N1CC[NH2+]CC1)OCc1ccccc1.[Cl-] | 2.75%
COc1cc([N+](=O)[O-])ccc1NC(=O)Cc1ccc(C)cc1 | 11.7%
O=C(NCCc1ccccc1Cl)C1CCN(S(=O)(=O)c2cccs2)CC1 | 0.833%
O=C(CSc1ccccc1)NCCc1ccccc1 | 12.8%
Cc1ccc(S(=O)(=O)N2[C@@H](c3ccccc3)C(C(=O)O)=CC[C@H]2c2cccs2)cc1 | 12.9%
Cc1ccc(N2CCN(c3ccc(C)cc3)C2c2ccncc2)cc1 | -0.287%
O=C(CC1C(=O)NCCN1Cc1c(F)cccc1Cl)NC1CCCCCC1 (stereo not drawn) | 3.77%
CCOC(=O)CCNC(C(=O)OCC)c1ccccc1 (stereo not drawn) | 2.69%

SMILES | hERG current change (%, negative = inhibition) at 1uM
COc1ccc(C(=O)Nc2ccc(C3(C#N)CCCC3)cc2)cc1 | 12.2%
COc1cc2c(cc1OC)C(C(=O)N1CCCCC1)C(c1ccccc1F)N(C)C2=O (stereo not drawn) | 13.3%
O=C1CCC([N+](=O)[O-])C(c2cc(Br)ccc2F)N1 (stereo not drawn) | 14.5%
N#Cc1c(Cc2cccc3ccccc23)nn(CCO)c1N | 11.8%
O=C(NC1CCCC1)C(c1ccsc1)N(C(=O)Cc1cccs1)c1ccccc1 (stereo not drawn) | 8.12%
O=c1c2ccccc2oc2nc(-c3ccco3)n(Cc3ccccc3)c(=O)c12 | 5.08%
CCOC(=O)Cc1csc(SCC(=O)/C(C#N)=C(\C)N)n1 | 6.86%
COc1cccc(C(=O)Nc2ccncc2)c1OC | 9.58%
COc1ccc(OC)c(C2C(C(C)=O)=C(O)C(=O)N2Cc2cccnc2)c1 (stereo not drawn) | 7.26%
COc1cccc(Nc2ccc(C(=O)O)cc2N)c1 | 13.4%
COc1ccc(CC(NC(C)=O)C(=O)NC2CCN(C(=O)c3ccccc3F)CC2)cc1 (stereo not drawn) | 14.7%
CNc1ccc([N+](=O)[O-])cc1-c1nc2ccccc2[nH]c1=O | 27.4%
S=c1[nH]nc(-c2ccccn2)n1/N=C/c1ccc(Cl)cc1 | 10.2%
CCOc1ccc(NC(=O)CN(C)C(=O)c2ccc(OCc3ccccc3)c(OC)c2)cc1OCC | 7.4%
Cc1cc(Cl)ccc1OCCCC(=O)Nc1cccc(-n2cnnn2)c1 | 1.28%
O=C(CCCCl)NC(=S)Nc1ccc(CN2CCOCC2)cc1 | 1.17%
O=c1c2c3c(sc2n2cnnc2n1Cc1ccccc1)CN(Cc1ccccc1)CC3 | -0.523%
Nc1c(C(=O)Nc2ccc(F)cc2)sc2nc(-c3ccco3)ccc12 | 5.39%
Cc1cc(C(=O)NNC(=O)Cc2ccc(Cl)cc2)c(C)o1 | -24.8%

SMILES | hERG current change (%, negative = inhibition) at 1uM
C/C(N)=C(/C#N)C(=O)COc1ncnc2ccc(Br)cc12 | 2.43%
CCCC1=C/C(=C/c2ccc(-c3ccccc3OC)o2)C(=O)O1 | 3.26%
CC(C)c1ccc(N(CC(=O)N2CCOCC2)S(C)(=O)=O)cc1 | 9.74%
Cc1scc(C(=O)N/N=C/c2ccsc2)c1C | 5.8%
C=CCn1c(=S)[nH]c2cc(C(=O)NCCc3ccc(S(N)(=O)=O)cc3)ccc2c1=O | 0.0661%
CCc1ccc(C2CC(c3cccc(Cl)c3)n3nc(N)nc3N2)cc1 (stereo not drawn) | -5.07%
CCOc1ccc(C(=O)NCC2(c3ccccc3)CCOCC2)cc1 | 15.2%
CCOC(=O)CC1C(=O)NCCN1C(=O)c1ccc(Cl)cc1Cl (stereo not drawn) | 4.9%
COc1cc(CN2CCCC(C(=O)c3ccccc3SC)C2)cc(OC)c1 (stereo not drawn) | -9.13%
O=C(C1CCCN1S(=O)(=O)c1cccc2nsnc12)N1CCN(c2ccc(F)cc2)CC1 (stereo not drawn) | -54.1%
Cc1cc(NC(=O)COC(=O)CC2CCCC2)c([N+](=O)[O-])cc1C | -1.08%
O=C(Cn1cc([N+](=O)[O-])cn1)NCc1ccccc1Cl | 16.8%
CCOC(=O)N1CCN(C(=O)COc2cc(=O)n(CC)c3ccccc23)CC1 | 7.42%
Cc1ccc(N(C)S(=O)(=O)c2cccc(C(=O)NC3=NCCS3)c2)cc1 | 19.9%
C=CCn1c(SCC(=O)c2ccc(F)cc2)nnc1-c1ccc2c(c1)OCO2 | 0.0233%
Cc1csc(NC(=O)Cc2ccc(Cl)cc2)n1 | 0.992%
c1ccc(-c2csc(N3CCc4ccccc4C3)n2)cc1 | 12%
O=[N+]([O-])c1ccc(O)c(C(C#Cc2ccccc2)N2CCOCC2)c1 (stereo not drawn) | 6.76%
COc1ccc(S(=O)(=O)N2CCN(c3cc(-c4ccccc4)nc4ncnn34)CC2)cc1 | -14.2%

Source: PMC4336329 (PLoS ONE, 2015)
